This note sets out measurements from the supplement of paper PMC10369915.

This is one part of the list. Cut-off read from the data, not from the text of the source: active = 3.2 or more and inactive = the rest. The signal is at background level for most entries.

The chains are these.
B1: KCNIP3_Y174_D179Y_YF (peptide)
chain: WAFNLYDINKF
B2: KAT8_Y90 (peptide)
chain: GREEFYVHYVG
B3: KCNH2_Y611_V612L_YF (peptide)
chain: SIKDKYLTALF
B4: KCNIP3_Y174_D179Y (peptide)
chain: WAFNLYDINKY
B5: KCNH2_Y780 (peptide)
chain: LLTALYFISRG
B6: KCNH2_Y1009_R1005Q (peptide)
chain: SQGRQYQELPR
B7: KCNMA1_Y885_E884K (peptide)
chain: VGSIKYLKREW
B8: KCNH2_Y611_L615F_YF (peptide)
chain: SIKDKYVTAFF
B9: KCNH2_Y611_L615V (peptide)
chain: SIKDKYVTAVY
B10: KCNMA1_Y885 (peptide)
chain: VGSIEYLKREW
B11: KCNH2_Y475_Y475C (peptide)
chain: NFRTTCVNANE
B12: KCNH2_Y611_Y611H (peptide)
chain: SIKDKHVTALY
B13: KCNN3_Y268 (peptide)
chain: NQNIGYKLGHR
B14: KCNIP3_Y174 (peptide)
chain: WAFNLYDINKD
B15: KCNH2_Y611_D609G (peptide)
chain: SIKGKYVTALY
B16: KBTBD2_Y250 (peptide)
chain: VVQGLYKSMPK
B17: KCNJ12_Y427 (peptide)
chain: LEQRPYRRESE
B18: KAT8_Y90_R86G (peptide)
chain: GGEEFYVHYVG
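Note: displayed peptides selected on beads carrying the immobilized SH2 domain, with library peptides lacking any tyrosine serving as negative controls.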

One test has as its target SHP2 C-SH2 domain E139D. As to the kind of experiment: enrichment score (SH2-bound / input frequency) (ratio); bacterial display of known human phosphotyrosine sites (pTyr-Var adds point mutants) read by sequencing; higher = stronger binding; tyrosines were phosphorylated by kinases first. The following applies: peptide library: pTyr-Var.
As to B1, the enrichment score was inactive: 1.42.
Take B2: the enrichment score is inactive: 0.901.
On to B3, for which the enrichment score was inactive: 1.18.
Same read-out and setting: with B4 the figure was inactive: 1.28; with B5, inactive: 3.01; with B6, inactive: 0.522.
Still for that read-out and setting: with B7 the figure was inactive: 1.07; with B8, inactive: 0.827; with B9, inactive: 0.708.
Same read-out and setting: with B10 the figure was inactive: 0.797.
Regarding B11, the enrichment score is inactive: 0.804.
Still for that read-out and setting: to B12 belongs inactive: 0.644; to B13, inactive: 0.772; to B14, inactive: 1.18.
Still for that read-out and setting: with B15 the figure was inactive: 0.824.
On the same count and under the same terms, to B16 belongs inactive: 0.928; to B17, inactive: 0.308; to B18, inactive: 0.759.

For a further test, the target named is SHP2 C-SH2 domain wild-type. Described as above. The following applies: peptide library: pTyr-Var.
B1: the enrichment score is inactive: 1.22.
As to B2, the enrichment score was inactive: 1.26.
As to B3, the enrichment score was inactive: 1.17.
On the same count and under the same terms, to B4 belongs inactive: 1.25; to B5, inactive: 2.89; to B6, inactive: 0.715.
Same read-out and setting: to B7 belongs inactive: 1.01.
Turning to B8, the enrichment score is inactive: 0.755.
Still for that read-out and setting: to B9 belongs inactive: 0.712; to B10, inactive: 0.928.
For B11, the enrichment score is inactive: 0.917.
The same measure, in the same setting: to B12 belongs inactive: 0.777.
Still for that read-out and setting: to B13 belongs inactive: 0.781; to B14, inactive: 1.15.
On the same count and under the same terms, with B15 the figure was inactive: 0.706.
As to B16, the enrichment score was inactive: 0.874.
On the same count and under the same terms, with B17 the figure was inactive: 0.331; with B18, inactive: 0.921.

For another test, the target named is SHP2 N-SH2 domain L43F. The description is as above. The following applies: peptide library: pTyr-Var.
As to B1, the enrichment score was inactive: 1.71.
Still for that read-out and setting: with B2 the figure was inactive: 0.773.
Still for that read-out and setting: with B3 the figure was inactive: 1.09; with B4, inactive: 1.32; with B5, inactive: 2.92.
For B6, the enrichment score was inactive: 0.603.
The same measure, in the same setting: to B7 belongs inactive: 1.19.
Same read-out and setting: with B8 the figure was active: 6.13; with B9, inactive: 0.873; with B10, inactive: 0.72.
Regarding B11, the enrichment score was inactive: 0.907.
On the same count and under the same terms, with B12 the figure was inactive: 0.65; with B13, inactive: 0.812.
The same measure, in the same setting: to B14 belongs inactive: 1.12; to B15, inactive: 0.673.
Consider B16, for which the enrichment score was inactive: 0.72.
Same read-out and setting: to B17 belongs inactive: 0.254; to B18, inactive: 0.714.

In a further test the target is SHP2 N-SH2 domain T42A. The description is as above. Particulars: peptide library: pTyr-Var.
For the molecule B1, the enrichment score was inactive: 1.65.
As for B2, the enrichment score was inactive: 0.735.
On to B3, for which the enrichment score was inactive: 0.934.
On the same count and under the same terms, to B4 belongs inactive: 1.16; to B5, inactive: 2.35.
Same read-out and setting: to B6 belongs inactive: 0.628.
On the same count and under the same terms, to B7 belongs inactive: 1.05; to B8, active: 4.08; to B9, inactive: 0.598.
Turning to B10, the enrichment score was inactive: 0.927.
On the same count and under the same terms, with B11 the figure was inactive: 0.706.
Same read-out and setting: with B12 the figure was inactive: 0.494.
On the same count and under the same terms, to B13 belongs inactive: 0.644; to B14, inactive: 1.5; to B15, inactive: 0.77.
In the case of B16, the enrichment score is inactive: 1.07.
On the same count and under the same terms, to B17 belongs inactive: 0.173; to B18, inactive: 0.758.

The target of a further test is SHP2 N-SH2 domain T52S. The description is as above. Particulars: peptide library: pTyr-Var.
In the case of B1, the enrichment score is inactive: 1.27.
The same measure, in the same setting: with B2 the figure was inactive: 0.707; with B3, inactive: 1.27; with B4, inactive: 1.16.
On the same count and under the same terms, with B5 the figure was inactive: 2.54.
Same read-out and setting: to B6 belongs inactive: 0.44; to B7, inactive: 0.982; to B8, active: 7.75.
B9: the enrichment score is inactive: 0.733.
Still for that read-out and setting: with B10 the figure was inactive: 0.896.
Same read-out and setting: with B11 the figure was inactive: 0.652.
Consider B12, for which the enrichment score is inactive: 0.642.
As to B13, the enrichment score is inactive: 0.838.
The same measure, in the same setting: to B14 belongs inactive: 1; to B15, inactive: 0.673; to B16, inactive: 0.877.
For the molecule B17, the enrichment score is inactive: 0.18.
B18: the enrichment score is inactive: 0.714.

A further test concerns the target SHP2 N-SH2 domain wild-type. Described as above. The following applies: peptide library: pTyr-Var.
Regarding B1, the enrichment score was inactive: 1.02.
The same measure, in the same setting: with B2 the figure was inactive: 0.874.
B3: the enrichment score was inactive: 1.14.
As to B4, the enrichment score is inactive: 1.14.
Still for that read-out and setting: with B5 the figure was inactive: 2.92.
Same read-out and setting: with B6 the figure was inactive: 0.573; with B7, inactive: 1.05.
Still for that read-out and setting: with B8 the figure was active: 3.24.
B9: the enrichment score was inactive: 0.758.
As for B10, the enrichment score was inactive: 0.767.
Same read-out and setting: with B11 the figure was inactive: 1.09; with B12, inactive: 0.692.
The same measure, in the same setting: to B13 belongs inactive: 0.981; to B14, inactive: 1.06; to B15, inactive: 0.678.
In the case of B16, the enrichment score was inactive: 0.933.
Consider B17, for which the enrichment score is inactive: 0.126.
The same measure, in the same setting: with B18 the figure was inactive: 0.776.
